# Results from the supplement of paper PMC3334620.
# The full ranking holds about 33,000 sequences; the median of “E-score (-0.5 to 0.5)” is about -0.01, and the highest 2% start at about 0.26. The list shows a part of the results.
# Molecular target: Ste12 (UniProt P13574)
# Assay: PBM E-score (8-mer binding enrichment) (E-score (-0.5 to 0.5)); higher = stronger / more preferred TF binding; most listed sequences are background and not binding sites
# Details: protein concentration: 200 nM; construct: GST-DNA-binding domain
# In short: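 For each ungapped eight-base word taken together with its reverse complement, the Universal PBM Analysis Suite assigned an E-score. Binding data came from GST-tagged yeast transcription factors, applied at about 100-200 nM, on universal all-10-mer Agilent arrays made double-stranded by primer extension. Fluorescent anti-GST marked bound protein, and scans were normalised with masliner.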
row,Sequence,PBM E-score
1,CCGGAGAC,-0.00334
2,ACGGATCT,-0.183
3,GTATTCGA,0.0722
4,GTGGGCGA,-0.0639
5,CTAGCCAC,-0.321
6,CCATGAAA,0.252
7,GCGTTGTA,0.00397
8,AGCGGAGA,0.0881
9,ACAAGGGC,-0.168
10,AGTGTAAG,0.228
11,CCCTAAGG,-0.222
12,CAGGGCGC,0.0408
13,CGCGGAAC,0.104
14,GGCGACAA,-0.0913
15,ACAGCCAA,0.00901
16,TCAGTCAA,-0.0289
17,GATTGCGC,0.123
18,CCCGTGAC,-0.012
19,AGGCGACG,0.0249
20,GGGGACCC,-0.163
21,AATCTCCT,-0.0183
22,CATAGCTA,-0.189
23,ATGGAGAG,-0.00195
24,CGAGGCCA,-0.0655
25,GTCGGATA,-0.0399

row,Sequence,PBM E-score
1,ACTATATC,0.215
2,ATCGTGTG,-0.0771
3,CTGTTGAA,0.258
4,AGGTTGGA,0.114
5,CTTTCCTA,-0.0026
6,ATTTCACC,0.0498
7,CAACGTTC,0.174
8,TACCCCGA,0.143
9,GTACAAAA,0.0142
10,ACTCAAGG,-0.176
11,AGAAGTAG,-0.0868
12,ATATCCCA,0.13
13,CAGTTGTA,-0.0352
14,CGTCAATC,0.0356
15,ACTTTAAC,0.162
16,ACTGGTTA,0.0295
17,ACAGGCCA,-0.117
18,ATTTTGGC,0.191
19,ATATTCAT,0.227
20,CATACCGG,-0.0527
21,AGCGGTTA,0.0437
22,AGGGAGCG,-0.0688
23,ATGCCTTC,-0.311
24,CTGGTGTA,-0.102
25,CCATCTCG,-0.131

row,Sequence,PBM E-score
1,ACGATTGG,-0.0558
2,ATGTAAAA,0.349
3,CCTTTCCC,-0.0368
4,ATCAAGGA,-0.125
5,ACCGACCA,-0.00614
6,AAAGATCA,-0.00317
7,ACACCTAC,0.0471
8,ACCGTCTC,-0.0593
9,CCGTTGAC,-0.0834
10,GATTTTAA,0.201
11,ACAACAGG,-0.127
12,CTAAAAAA,0.278
13,ATGAGTGC,0.00589
14,ATGCAAAT,-0.0256
15,ATTCATAC,0.219
16,AACCATCA,-0.0543
17,AGAGAAGC,0.00128
18,GGCTGGCA,-0.293
19,GCTCTACA,0.0189
20,AGTACTAC,0.0281
21,CAAGGTAA,0.056
22,ATGGATTG,0.0445
23,CTCTTATC,0.0526
24,CTTATCAA,0.109
25,AAAATCAG,0.118

row,Sequence,PBM E-score
1,AATAAAGA,0.211
2,AATGCATA,-0.0821
3,ACCAGAGG,-0.0796
4,ACAATAGG,0.0381
5,ATAGGCAC,-0.245
6,AGTTAGCA,-0.107
7,ACTATACG,-0.113
8,AGCGGTAA,0.108
9,ATAGTCTG,-0.101
10,CGTATCTC,0.053
11,AGCCCGAT,0.14
12,TGTCCCAA,-0.0924
13,ATCGTGGG,0.128
14,TCGTCTAA,-0.0513
15,CCGGGATC,0.148
16,GACTCCTC,-0.101
17,AGAGGCCA,-0.072
18,AGTGCGAG,-0.0922
19,ACTTCAAG,0.066
20,ACTGTCTA,-0.165
21,ACGTATGG,-0.00236
22,GAGCGAGC,-0.00859
23,GCTTCGCA,-0.235
24,AACAGGGG,0.0794
25,AGGGCAAG,0.172

row,Sequence,PBM E-score
1,ATACGATG,-0.13
2,GCAAAGAA,0.225
3,AAAAATTT,0.138
4,ACGAAAAT,0.142
5,ATGAACAC,0.136
6,GTGAAGGA,-0.00656
7,CAAACCGA,0.0295
8,CACAGCCC,-0.205
9,ACATAGTC,-0.114
10,GAGTCGAC,0.0372
11,AGAAAGTC,0.0154
12,ATAAATCG,0.0695
13,AGGCTTGG,-0.0545
14,AACCCGCA,0.139
15,CCATGAGC,-0.323
16,CTCCGAAC,-0.216
17,ATGTGTTG,0.132
18,GGTCAGAA,0.0496
19,CCGGAAAC,0.0586
20,GGAATTAA,0.229
21,CATACAAG,-0.113
22,ACCCTGCT,-0.216
23,CGTCGACA,0.0468
24,GACAAGCC,-0.108
25,ACTCTCAG,0.0382

row,Sequence,PBM E-score
1,CTCCCAAC,0.0957
2,ACTCAGCA,-0.191
3,CTCGTCGC,-0.0358
4,AGGTCAAA,0.0538
5,GACTGGGA,0.0394
6,ATAGCGAG,0.0492
7,GACAGGGC,-0.169
8,AGAACACT,0.0209
9,GCGTCATA,0.143
10,CTACCAAA,0.0171
11,TCTCCAGA,-0.249
12,AAGAGTGA,-0.0133
13,CGAGTGAG,-0.188
14,GTCTTCGA,-0.221
15,ACCTGTGC,-0.156
16,GGTTGCTA,-0.112
17,ATGGCCAT,-0.189
18,AATCGCCT,0.114
19,ATACCGTA,0.0561
20,GGGTCTAA,0.122
21,GTCGGGTA,0.0975
22,CTTAGATA,0.133
23,GCCCACCC,0.344
24,CTGGGGTA,-0.145
25,CTGTTCGC,0.13

row,Sequence,PBM E-score
1,GTTACTAA,0.0719
2,CCGTACAG,-0.21
3,AAAATCGC,0.151
4,CGGGGAAC,-0.0249
5,GGCCTACA,-0.137
6,GATGGGGC,0.0325
7,ACCCGCGC,0.25
8,CGACCTAC,-0.151
9,CCAAACTC,0.184
10,AACGCTCG,0.032
11,CTCTCCCA,-0.0499
12,GTTGGAGA,0.19
13,CCGGATAA,0.0216
14,GGGTTCAA,-0.0051
15,ATTTTTCG,0.294
16,ATTTACTA,0.169
17,GTATATGA,0.0568
18,ACGGCAGG,-0.162
19,ACCAAGTA,0.145
20,TCCTCTCA,-0.0603
21,GATGGAAA,0.0433
22,ACGGGAAT,-0.119
23,CTATTGTC,-0.0655
24,GTTGTGAA,0.107
25,CTTAGGAA,0.122

row,Sequence,PBM E-score
1,GAGACGAC,-0.0981
2,CAAATTAC,0.0769
3,CCATACAA,0.0185
4,AAAAATCA,0.254
5,GTTCAGGA,-0.102
6,CCGAAAAA,0.269
7,TGTTCAAA,0.17
8,AGGTGTCA,0.104
9,GGGTGCGA,-0.00757
10,GTCTGGCA,-0.159
11,AACTTAGG,0.151
12,GACGTTAA,0.0126
13,TCAACTAA,-0.0445
14,ACGATAGG,-0.113
15,AGAGTAAC,-0.0409
16,ATCATAGG,-0.0846
17,AACAATCA,0.139
18,ATGAATTC,0.0982
19,AAACCCAA,0.349
20,CAATCACA,-0.0522
21,TGTGTAAA,0.166
22,ACCGTAGT,-0.0915
23,GCGTTAGC,-0.0623
24,ACCCGAAG,0.017
25,CACTTTCC,-0.0588

row,Sequence,PBM E-score
1,AGATTGGC,-0.109
2,AAGGCCGC,-0.0881
3,CCCGCTCC,-0.125
4,CAGGCACG,-0.0922
5,AAGTTGCG,0.148
6,AATGTTGC,0.0457
7,ATAGCAAT,0.0679
8,CGGGGTTA,0.203
9,GGTTGCGA,-0.00474
10,GGTAGCCA,-0.0713
11,CCCAGGGG,-0.23
12,ACAAGACT,0.0348
13,TATCGAGA,0.0306
14,AGAGCAGG,-0.0406
15,GAAAGACC,-0.00946
16,CGACTCTC,-0.103
17,ACGGTTCG,-0.0901
18,GCTAGAGA,-0.0888
19,AAAATAGG,0.171
